# In the supplement of paper PMC4967469:
# The IC50 comes from the fitted curve, where viability falls to half of the control; a limit (>, <) means that the fit lies beyond the doses tested. For AUC the same curve is integrated over the 256-fold range of doses and scaled to a fraction: 1 means no effect, lower means more sensitive. For some assays here: Where the top dose is marked as inferred, it was calculated from the reported fits. For some assays here: Where an entry number is given, a second screen of the drug exists; the two often differ.
# How the values were obtained:
# Test in all cases: Viability of human cancer cell lines after 72 h of drug (GDSC screen)
# [1] = compound: O=S(=O)(c1ccccc1)N(CC(F)(F)F)c1ccc(C(O)(C(F)(F)F)C(F)(F)F)cc1 [T0901317]; details: top dose 10.24 µM; top dose inferred
# Protocol: (§1)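 Human cancer cell lines in 384-well plates, medium with 10% serum, drug for 72 h over a 256-fold dose range (nine 2-fold or five 4-fold steps up to the top dose). Adherent lines were fixed and stained with the nucleic acid dye Syto60, suspension lines read with resazurin; signal relative to control wells, capped at 0 and 100%. One two-parameter sigmoid per drug and line, fitted in a mixed model over all curves with the slope shared within a line.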
# [2] = compound: CC(C)c1ccccc1Cc1cc(C(=O)Nc2ccc(S(=O)(=O)c3ccccc3C(C)(C)C)cc2)c(O)c(O)c1O [TW-37]; details: top dose 5 µM
# Protocol: as §1
# [3] = compound: Nc1ccn([C@@H]2O[C@H](CO)[C@@H](O)C2(F)F)c(=O)n1 [Gemcitabine]; details: top dose 1.024 µM
# Protocol: as §1
# [4] = compound: CCNC(=O)c1noc(-c2cc(C(C)C)c(O)cc2O)c1-c1ccc(CN2CCOCC2)cc1 [AUY922]; details: top dose 0.256 µM; top dose inferred
# Protocol: as §1
# [5] = compound: CC(O)(CS(=O)(=O)c1ccc(F)cc1)C(=O)Nc1ccc(C#N)c(C(F)(F)F)c1 [Bicalutamide]; details: top dose inferred
# Protocol: as §1
# [6] = compound: S=C(NCc1ccc2c(c1)OCO2)N1CCN(c2ncnc3c2oc2ccccc23)CC1 [MP470]; details: top dose 20 µM; top dose inferred
# Protocol: as §1
# [7] = compound: Cc1ccc(Nc2cc(-c3cccc(N4C(=O)c5ccccc5C4=O)c3)ncn2)cc1NS(C)(=O)=O [KIN001-270]; details: top dose 20 µM; top dose inferred
# Protocol: as §1
# [8] = compound: C/C(O)=C(\C#N)C(=O)Nc1cc(Br)ccc1Br [LFM-A13]; details: top dose 16 µM; top dose inferred
# Protocol: as §1
# [9] = top dose 1.024 µM, screen: GDSC drug entry 150
# [10] = top dose 10 µM, screen: GDSC drug entry 1502
Cell Line,AUC [1],IC50 [1],AUC [2],IC50 [2],AUC [3],IC50 [3],AUC [4],IC50 [4],"AUC [5, 9]","IC50 [5, 9]","AUC [5, 10]","IC50 [5, 10]",AUC [6],IC50 [6],AUC [7],IC50 [7],AUC [8],IC50 [8]
"EPLC-272H (lung squamous cell carcinoma, adherent)",0.982,> 10200 nM,0.633,767 nM,0.306,16.8 nM,0.633,39.1 nM,0.976,> 1020 nM,0.975,> 10000 nM,0.833,15300 nM,0.944,> 20000 nM,0.967,> 16000 nM
"GAMG (glioma, adherent)",0.958,> 10200 nM,0.478,272 nM,0.198,7.69 nM,0.423,9.76 nM,0.98,> 1020 nM,0.963,> 10000 nM,0.802,10400 nM,0.922,> 20000 nM,0.939,> 16000 nM
"GCT (soft tissue, adherent)",0.989,> 10200 nM,0.456,239 nM,0.76,338 nM,0.665,44.4 nM,0.989,> 1020 nM,0.986,> 10000 nM,0.975,> 20000 nM,0.985,> 20000 nM,0.949,> 16000 nM
"GP5d (large intestine, adherent)",0.982,> 10200 nM,0.55,422 nM,0.368,28.9 nM,0.619,32.8 nM,0.991,> 1020 nM,0.99,> 10000 nM,0.941,> 20000 nM,0.989,> 20000 nM,0.989,> 16000 nM
"H2591 (mesothelioma, adherent)",0.982,> 10200 nM,0.47,253 nM,0.783,577 nM,0.697,68.6 nM,0.982,> 1020 nM,0.974,> 10000 nM,0.982,> 20000 nM,0.951,> 20000 nM,0.974,> 16000 nM
"H2803 (mesothelioma, adherent)",0.985,> 10200 nM,0.622,717 nM,0.595,122 nM,0.826,190 nM,0.985,> 1020 nM,,,0.984,> 20000 nM,0.964,> 20000 nM,0.979,> 16000 nM
"H2804 (mesothelioma, adherent)",0.985,> 10200 nM,0.646,825 nM,0.485,57.9 nM,0.669,49.6 nM,0.981,> 1020 nM,,,0.904,> 20000 nM,0.982,> 20000 nM,0.971,> 16000 nM
"H2818 (mesothelioma, adherent)",0.988,> 10200 nM,0.676,987 nM,0.987,> 1020 nM,0.989,> 256 nM,0.986,> 1020 nM,0.966,> 10000 nM,0.951,> 20000 nM,0.983,> 20000 nM,0.988,> 16000 nM
"H3118 (head and neck, adherent)",0.974,> 10200 nM,0.566,482 nM,0.174,5.84 nM,0.474,13.5 nM,0.983,> 1020 nM,0.96,> 10000 nM,0.893,> 20000 nM,0.966,> 20000 nM,0.983,> 16000 nM
"H3255 (lung adenocarcinoma, adherent)",0.982,> 10200 nM,0.535,395 nM,0.541,84.8 nM,0.761,108 nM,0.984,> 1020 nM,0.946,> 10000 nM,0.951,> 20000 nM,0.972,> 20000 nM,0.983,> 16000 nM
"HCC1806 (breast, adherent)",0.972,> 10200 nM,0.775,1820 nM,0.128,4.87 nM,0.788,102 nM,0.985,> 1020 nM,0.985,> 10000 nM,0.959,> 20000 nM,0.978,> 20000 nM,0.989,> 16000 nM
"HCC-44 (lung adenocarcinoma, adherent)",0.984,> 10200 nM,0.597,574 nM,0.259,13.3 nM,0.39,8.02 nM,0.975,> 1020 nM,0.983,> 10000 nM,0.955,> 20000 nM,0.959,> 20000 nM,0.945,> 16000 nM
"HCC-827 (lung adenocarcinoma, adherent)",0.984,> 10200 nM,0.503,320 nM,0.97,> 1020 nM,0.708,68.1 nM,0.985,> 1020 nM,0.982,> 10000 nM,0.973,> 20000 nM,0.982,> 20000 nM,0.97,> 16000 nM
"HLE (liver, adherent)",0.989,> 10200 nM,0.436,211 nM,0.145,5.52 nM,0.483,14.4 nM,0.981,> 1020 nM,0.987,> 10000 nM,0.878,18300 nM,0.945,> 20000 nM,0.971,> 16000 nM
"HO-1-N-1 (head and neck, adherent)",0.986,> 10200 nM,0.708,1140 nM,0.294,17.9 nM,0.596,28.7 nM,0.989,> 1020 nM,0.963,> 10000 nM,0.976,> 20000 nM,0.982,> 20000 nM,0.947,> 16000 nM
"HPAC (pancreas, adherent)",0.979,> 10200 nM,0.884,> 5000 nM,0.274,11 nM,0.794,177 nM,0.979,> 1020 nM,,,0.857,> 20000 nM,0.979,> 20000 nM,0.979,> 16000 nM

Cell Line,AUC [1],IC50 [1],AUC [2],IC50 [2],AUC [3],IC50 [3],AUC [4],IC50 [4],"AUC [5, 9]","IC50 [5, 9]","AUC [5, 10]","IC50 [5, 10]",AUC [6],IC50 [6],AUC [7],IC50 [7],AUC [8],IC50 [8]
"HPAF-II (pancreas, adherent)",0.954,> 10200 nM,0.482,276 nM,0.663,210 nM,0.843,> 256 nM,0.979,> 1020 nM,0.978,> 10000 nM,0.823,16900 nM,0.981,> 20000 nM,0.936,> 16000 nM
"HSC-3 (head and neck, adherent)",0.985,> 10200 nM,0.51,332 nM,0.197,9.68 nM,0.347,,0.99,> 1020 nM,0.894,8990 nM,0.971,> 20000 nM,0.986,> 20000 nM,0.989,> 16000 nM
"HT55 (large intestine, adherent)",0.988,> 10200 nM,0.601,591 nM,0.965,> 1020 nM,0.942,> 256 nM,0.986,> 1020 nM,,,0.691,4260 nM,0.99,> 20000 nM,0.978,> 16000 nM
"HTC-C3 (thyroid, adherent)",0.894,> 10200 nM,0.709,1320 nM,0.786,500 nM,0.605,32.2 nM,0.984,> 1020 nM,0.957,> 10000 nM,0.911,> 20000 nM,0.983,> 20000 nM,0.959,> 16000 nM
"Hep 3B2_1-7 (liver, adherent)",0.969,> 10200 nM,0.555,441 nM,0.276,14.8 nM,0.453,11.9 nM,0.982,> 1020 nM,0.952,> 10000 nM,0.935,> 20000 nM,0.961,> 20000 nM,0.951,> 16000 nM
"Hs766T (pancreas, adherent)",0.975,> 10200 nM,0.864,> 5000 nM,0.917,> 1020 nM,0.983,> 256 nM,0.984,> 1020 nM,0.982,> 10000 nM,0.962,> 20000 nM,0.981,> 20000 nM,0.953,> 16000 nM
"Hs-578-T (breast, adherent)",0.987,> 10200 nM,0.323,97 nM,0.984,> 1020 nM,0.986,> 256 nM,0.987,> 1020 nM,0.97,> 10000 nM,0.984,> 20000 nM,0.984,> 20000 nM,0.986,> 16000 nM
"IM-95 (stomach, adherent)",0.925,> 10200 nM,0.628,725 nM,0.317,19 nM,0.634,38.5 nM,0.979,> 1020 nM,,,0.937,> 20000 nM,0.956,> 20000 nM,0.977,> 16000 nM
"J82 (bladder, adherent)",0.986,> 10200 nM,0.697,1120 nM,0.211,9.07 nM,0.52,18.2 nM,0.987,> 1020 nM,0.981,> 10000 nM,0.979,> 20000 nM,0.983,> 20000 nM,0.958,> 16000 nM
"JHU-011 (head and neck, adherent)",0.971,> 10200 nM,0.553,436 nM,0.145,5.16 nM,0.41,9.09 nM,0.986,> 1020 nM,,,0.978,> 20000 nM,0.967,> 20000 nM,0.982,> 16000 nM
"JIMT-1 (breast, adherent)",0.977,> 10200 nM,0.522,361 nM,0.382,29.5 nM,0.479,14 nM,0.985,> 1020 nM,0.967,> 10000 nM,0.912,> 20000 nM,0.974,> 20000 nM,0.97,> 16000 nM
"KOSC-2 (head and neck, adherent)",0.985,> 10200 nM,0.555,445 nM,0.904,> 1020 nM,0.667,47.8 nM,0.985,> 1020 nM,0.905,> 10000 nM,0.985,> 20000 nM,0.985,> 20000 nM,0.971,> 16000 nM
"KYSE-270 (oesophagus, adherent)",0.978,> 10200 nM,0.477,273 nM,0.103,4.37 nM,0.479,14.2 nM,0.983,> 1020 nM,0.985,> 10000 nM,0.951,> 20000 nM,0.97,> 20000 nM,0.973,> 16000 nM
"LC-1-sq (lung squamous cell carcinoma, adherent)",0.971,> 10200 nM,0.858,> 5000 nM,0.739,353 nM,0.944,> 256 nM,0.982,> 1020 nM,0.983,> 10000 nM,0.947,> 20000 nM,0.985,> 20000 nM,0.984,> 16000 nM
"LCLC-97TM1 (large cell lung carcinoma, adherent)",0.936,> 10200 nM,0.657,893 nM,0.102,< 4 nM,0.435,10.4 nM,0.98,> 1020 nM,0.978,> 10000 nM,0.738,6470 nM,0.942,> 20000 nM,0.956,> 16000 nM
